# Test results from the supplement of paper PMC8728848.
# This is one part of the list.
# Experiments:
# Assay in all cases: glycan array binding signal (z-score within array); higher = stronger binding
# Conditions in all cases: glycan notation: IUPAC condensed, linker removed
# Gal(a1-3)GalNAc = molecular target: Gal(a1-3)GalNAc
# Method in brief: (§1)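 Negative Z-scores can be read as non-binding. The Z-score is calculated within each array and then averaged across arrays of one protein sequence at different concentrations or buffers and across linkers. Arrays, 3228 in all, were curated from the Consortium for Functional Glycomics database and kept only where the protein sequence was available.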
# [1] = molecular target: Gal(a1-3)[Gal(a1-4)]Gal(b1-4)GlcNAc
# Method in brief: as §1
# [2] = molecular target: Gal(a1-4)Gal(b1-3)GlcNAc(b1-2)Man(a1-3)[Gal(a1-4)Gal(b1-3)GlcNAc(b1-2)Man(a1-6)]Man(b1-4)GlcNAc(b1-4)GlcNAc
# Method in brief: as §1
# Gal(a1-4)Gal(b1-4)Glc = molecular target: Gal(a1-4)Gal(b1-4)Glc
# Method in brief: as §1
# Gal(a1-4)Gal(b1-4)GlcNAc = molecular target: Gal(a1-4)Gal(b1-4)GlcNAc
# Method in brief: as §1
# [3] = molecular target: Gal(a1-4)Gal(b1-4)GlcNAc(b1-2)Man(a1-3)[Gal(a1-4)Gal(b1-4)GlcNAc(b1-2)Man(a1-6)]Man(b1-4)GlcNAc(b1-4)GlcNAc
# Method in brief: as §1
# [4] = molecular target: Gal(a1-4)Gal(b1-4)GlcNAc(b1-3)Gal(b1-4)Glc
# Method in brief: as §1
# Gal(a1-4)GlcNAc = molecular target: Gal(a1-4)GlcNAc
# Method in brief: as §1
# Gal(a1-6)Glc = molecular target: Gal(a1-6)Glc
# Method in brief: as §1
# Gal(b1-2)Gal = molecular target: Gal(b1-2)Gal
# Method in brief: as §1
# Gal(b1-3)Gal = molecular target: Gal(b1-3)Gal
# Method in brief: as §1
# Gal(b1-3)Gal(b1-4)GlcNAc = molecular target: Gal(b1-3)Gal(b1-4)GlcNAc
# Method in brief: as §1
# Gal(b1-3)GalNAc = molecular target: Gal(b1-3)GalNAc
# Method in brief: as §1
# [5] = molecular target: Gal(b1-3)GalNAc(a1-3)[Fuc(a1-2)]Gal(b1-4)Glc
# Method in brief: as §1
# [6] = molecular target: Gal(b1-3)GalNAc(a1-3)[Fuc(a1-2)]Gal(b1-4)GlcNAc
# Method in brief: as §1
# Gal(b1-3)GalNAc(b1-3)Gal = molecular target: Gal(b1-3)GalNAc(b1-3)Gal
# Method in brief: as §1
# [7] = molecular target: Gal(b1-3)GalNAc(b1-3)Gal(a1-4)Gal(b1-4)Glc
# Method in brief: as §1
# [8] = molecular target: Gal(b1-3)GalNAc(b1-4)Gal(b1-4)Glc
# Method in brief: as §1
# [9] = molecular target: Gal(b1-3)GalNAc(b1-4)[Neu5Ac(a2-3)]Gal(b1-4)Glc
# Method in brief: as §1
# Gal(b1-3)GlcNAc = molecular target: Gal(b1-3)GlcNAc
# Method in brief: as §1
# [10] = molecular target: Gal(b1-3)GlcNAc(a1-3)Gal(b1-4)GlcNAc
# Method in brief: as §1
# [11] = molecular target: Gal(b1-3)GlcNAc(a1-6)Gal(b1-4)GlcNAc
# Method in brief: as §1
# Gal(b1-3)GlcNAc(b1-2)Man = molecular target: Gal(b1-3)GlcNAc(b1-2)Man
# Method in brief: as §1
# [12] = molecular target: Gal(b1-3)GlcNAc(b1-2)Man(a1-3)[Gal(b1-3)GlcNAc(b1-2)Man(a1-6)]Man(b1-4)GlcNAc(b1-4)GlcNAc
# Method in brief: as §1
# [13] = molecular target: Gal(b1-3)GlcNAc(b1-2)Man(a1-3)[Gal(b1-3)GlcNAc(b1-2)Man(a1-6)]Man(b1-4)GlcNAc(b1-4)[Fuc(a1-6)]GlcNAc
# Method in brief: as §1
# [14] = molecular target: Gal(b1-3)GlcNAc(b1-2)Man(a1-3)[GlcNAc(b1-4)][Gal(b1-3)GlcNAc(b1-2)Man(a1-6)]Man(b1-4)GlcNAc(b1-4)GlcNAc
# Method in brief: as §1
# [15] = molecular target: Gal(b1-3)GlcNAc(b1-2)[Gal(b1-3)GlcNAc(b1-6)]Man(a1-6)[Gal(b1-3)GlcNAc(b1-2)Man(a1-3)]Man(b1-4)GlcNAc(b1-4)GlcNAc
# Method in brief: as §1
# [16] = molecular target: Gal(b1-3)GlcNAc(b1-3)Gal(b1-3)GlcNAc
# Method in brief: as §1
# [17] = molecular target: Gal(b1-3)GlcNAc(b1-3)Gal(b1-4)Glc
# Method in brief: as §1
# [18] = molecular target: Gal(b1-3)GlcNAc(b1-3)Gal(b1-4)GlcNAc
# Method in brief: as §1
# [19] = molecular target: Gal(b1-3)GlcNAc(b1-3)Gal(b1-4)GlcNAc(b1-2)Man(a1-3)[Gal(b1-3)GlcNAc(b1-3)Gal(b1-4)GlcNAc(b1-2)Man(a1-6)]Man(b1-4)GlcNAc(b1-4)GlcNAc
# Method in brief: as §1
# [20] = molecular target: Gal(b1-3)GlcNAc(b1-3)Gal(b1-4)GlcNAc(b1-2)[Gal(b1-3)GlcNAc(b1-3)Gal(b1-4)GlcNAc(b1-6)]Man(a1-6)[Gal(b1-3)GlcNAc(b1-3)Gal(b1-4)GlcNAc(b1-2)Man(a1-3)]Man(b1-4)GlcNAc(b1-4)[Fuc(a1-6)]GlcNAc
# Method in brief: as §1
# [21] = molecular target: Gal(b1-3)GlcNAc(b1-3)Gal(b1-4)GlcNAc(b1-3)Gal(b1-4)GlcNAc(b1-2)[Gal(b1-3)GlcNAc(b1-3)Gal(b1-4)GlcNAc(b1-3)Gal(b1-4)GlcNAc(b1-6)]Man(a1-6)[Gal(b1-3)GlcNAc(b1-3)Gal(b1-4)GlcNAc(b1-3)Gal(b1-4)GlcNAc(b1-2)Man(a1-3)]Man(b1-4)GlcNAc(b1-4)[Fuc(a1-6)]GlcNAc
# Method in brief: as §1
# [22] = molecular target: Gal(b1-3)GlcNAc(b1-3)Gal(b1-4)GlcNAc(b1-6)[Gal(b1-3)GlcNAc(b1-3)]Gal(b1-4)Glc
# Method in brief: as §1
# [23] = molecular target: Gal(b1-3)GlcNAc(b1-3)Gal(b1-4)[Fuc(a1-3)]GlcNAc
# Method in brief: as §1
# [24] = molecular target: Gal(b1-3)GlcNAc(b1-3)Gal(b1-4)[Fuc(a1-3)]GlcNAc(b1-6)[Gal(b1-3)GlcNAc(b1-3)]Gal(b1-4)Glc
# Method in brief: as §1
# [25] = molecular target: Gal(b1-3)GlcNAc(b1-3)GalNAc
# Method in brief: as §1
# [26] = molecular target: Gal(b1-3)GlcNAc(b1-6)Gal(b1-4)GlcNAc
# Method in brief: as §1
binder,measurement,setting,value
"Epa6 (Candida glabrata), Q6DTM7_CANGB (protein) MGSSHHHHHHSSGLVPRGSHMKDDYSSSLSNNNLGWTDPTEFPLGCSPNVTTPKNGLSMELYSYDYLKSGSNPCWDAAYLDPNYPRTGYKSHRLLAKVENVAGNINFYYHAPMGCTSLFDTLPQAYNYRTPLTMTNFTMLLYGYFKPKVTGYHTFTISADDLLFVNFGAGNAFDCCKRESSADDFGNYQAYAVWGSQTAKDDLTVHLDAGLYYPIRIFFNNRDNDGALSLTLKTESDPNPVIDFSDYFYSFDDTKDGCPGLVSYDTS",glycan array binding signal (z-score),Gal(a1-3)GalNAc,4.17
same,glycan array binding signal (z-score),[1],2.11
same,glycan array binding signal (z-score),[2],6.23
same,glycan array binding signal (z-score),Gal(a1-4)Gal(b1-4)Glc,1.45
same,glycan array binding signal (z-score),Gal(a1-4)Gal(b1-4)GlcNAc,4.65
same,glycan array binding signal (z-score),[3],4.02
same,glycan array binding signal (z-score),[4],4.42
same,glycan array binding signal (z-score),Gal(a1-4)GlcNAc,1.3
same,glycan array binding signal (z-score),Gal(a1-6)Glc,8.63
same,glycan array binding signal (z-score),Gal(b1-2)Gal,6.14
same,glycan array binding signal (z-score),Gal(b1-3)Gal,2.6
same,glycan array binding signal (z-score),Gal(b1-3)Gal(b1-4)GlcNAc,10
same,glycan array binding signal (z-score),Gal(b1-3)GalNAc,0.883
same,glycan array binding signal (z-score),[5],4.95
same,glycan array binding signal (z-score),[6],5.98
same,glycan array binding signal (z-score),Gal(b1-3)GalNAc(b1-3)Gal,3.02
same,glycan array binding signal (z-score),[7],1.6
same,glycan array binding signal (z-score),[8],3.9
same,glycan array binding signal (z-score),[9],1.52
same,glycan array binding signal (z-score),Gal(b1-3)GlcNAc,-0.129
same,glycan array binding signal (z-score),[10],-0.288
same,glycan array binding signal (z-score),[11],-0.287
same,glycan array binding signal (z-score),Gal(b1-3)GlcNAc(b1-2)Man,-0.043
same,glycan array binding signal (z-score),[12],-0.107
same,glycan array binding signal (z-score),[13],-0.16
same,glycan array binding signal (z-score),[14],0.156
same,glycan array binding signal (z-score),[15],-0.066
same,glycan array binding signal (z-score),[16],-0.207
same,glycan array binding signal (z-score),[17],-0.265
same,glycan array binding signal (z-score),[18],-0.312
same,glycan array binding signal (z-score),[19],-0.147
same,glycan array binding signal (z-score),[20],-0.073
same,glycan array binding signal (z-score),[21],-0.041
same,glycan array binding signal (z-score),[22],0.257
same,glycan array binding signal (z-score),[23],-0.276
same,glycan array binding signal (z-score),[24],-0.191
same,glycan array binding signal (z-score),[25],-0.227
same,glycan array binding signal (z-score),[26],-0.086
